The text below walks through data of PubChem BioAssay AID1240 (Sanford-Burnham Center for Chemical Genomics, 2008).

Out of some 50,000 compounds screened, about 800 (1.6%) showed an effect of 50% or more. The list shows a part of the results.

In the assay the target is Bcl-2-like protein 10 (Homo sapiens) (UniProt Q9HD36). Put plainly: TR3 peptide-Bcl-B binding displacers, biochemical primary FP assay, phenotype converters (AID 1240).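 Also: 0% = Bcl-B with tracer peptide and DMSO and 100% = tracer peptide lacking Bcl-B.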 The following applies: GST-Bcl-B / FITC-TR3 peptide fluorescence polarization; stronger effect = higher value; compound at 3.75 mg/L. (Polarisation of emitted light reports the rotation of a fluorescent probe.)
UniProt Q9HD36, sequence (Q9HD36 whole entry, looked up): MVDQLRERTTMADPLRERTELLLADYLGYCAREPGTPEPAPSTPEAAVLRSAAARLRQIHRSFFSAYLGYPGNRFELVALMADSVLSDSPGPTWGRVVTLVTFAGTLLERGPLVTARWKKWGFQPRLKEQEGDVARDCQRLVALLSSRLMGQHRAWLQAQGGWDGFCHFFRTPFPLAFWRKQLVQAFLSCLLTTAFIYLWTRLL
With `CNC(=S)NCCc1ccc(OC)c(OC)c1`, the displacement is -12.5%.

For the molecule `N/C(=N\N=C/c1ccc(Br)cc1)N/N=C\c1ccc(Br)cc1`, the displacement was determined as 2.6%.

With `CC1=C(C(=O)c2ccccc2)C(c2cccc(F)c2)NC(=O)N1` (centres undefined), the displacement is 0.5%.

On to `COc1ccc(CCNc2cc(N3CCN(C(=O)c4ccc(Br)cc4)CC3)ccc2[N+](=O)[O-])cc1OC`, for which the displacement is 4.7%.

On to `Nc1ccccc1C(=O)Nc1ccc(C(=O)O)cc1`, for which the displacement stood at 3.7%.

With `COc1ccc(C2=Nc3ccccc3NC(c3ccc([N+](=O)[O-])cc3)C2)cc1` (centres undefined), the displacement is -7.2%.

As to `COc1ccc(/C=N/NC(=O)c2n[nH]c3c2CCC3)cc1O`, the displacement is -12.2%.

On to `C[N+]1=C(CC(=O)Nc2ccccc2Cl)c2ccccc2CC1(C)C`, for which the displacement is 1.4%.

Consider `N/C(=N\OC(=O)c1ccc(Cl)c([N+](=O)[O-])c1)c1ccccc1Cl`, for which the displacement is 1.1%.

Regarding `C=CCN1C(=O)/C(=C\c2ccc(O)c([N+](=O)[O-])c2)C(=O)NC1=S`, the displacement is 0.6%.

`CC(C)C(=O)Nc1ccc(Cl)cc1C(=O)O`: the displacement turned out to be 8.1%.

Consider `COc1ccc(/C=N/NC(=O)CC2C(=O)NN=C2C)cc1` (centres undefined), for which the displacement was determined as 6.1%.

In the case of `Cc1ccc(-c2n[nH]c3c2C(c2cccc([N+](=O)[O-])c2)N(c2ccc(F)cc2)C3=O)cc1` (centres undefined), the displacement was -4.4%.

Regarding `CC(C)OC(=O)C1C(=O)CC(C)(O)C(C(=O)OC(C)C)C1/C=C/c1ccccc1` (centres undefined), the displacement was determined as 4.3%.

Turning to `O=c1c2ccccc2nc(/C=C/c2c[nH]c3ccccc23)n1-c1cccc([N+](=O)[O-])c1`, the displacement was -2.2%.

On to `O=C(NN1C(=O)c2ccccc2C1=O)c1ccc2c(c1)C(=O)N(c1cccc([N+](=O)[O-])c1)C2=O`, for which the displacement turned out to be 0.3%.

As to `COc1ccc(-c2nc3cc(NC(=O)/C=C/c4cccc([N+](=O)[O-])c4)ccc3o2)cc1Cl`, the displacement was 0.9%.

Regarding `Nc1nnc(SCc2ccc(Br)cc2)s1`, the displacement turned out to be 6.7%.

In the case of `Cc1cccc(OCC(=O)N/N=C/c2cccnc2)c1`, the displacement turned out to be 2.1%.

For the molecule `CCCC(C)NS(=O)(=O)c1ccc([N+](=O)[O-])cc1` (centres undefined), the displacement is 13.2%.

Take `Cc1ccc(C2/C(=C(\O)c3ccccc3)C(=O)C(=O)N2CCCC(=O)O)cc1` (centres undefined): the displacement came to 1.4%.

Turning to `Brc1ccc(C2=NCCO2)cc1`, the displacement came to 4.7%.

With `COc1ccc(C2CC(=O)C3=C(C2)NC(C)=C(C(=O)OCC(C)C)C3c2ccc(F)cc2)cc1` (centres undefined), the displacement was -2.7%.

As for `COc1ccc(CCNC(=O)c2ccc(C)c([N+](=O)[O-])c2)cc1OC`, the displacement was -4.6%.

On to `Clc1ccccc1-c1nc(NCc2ccccc2)c2ccccc2n1`, for which the displacement stood at 1.7%.

Turning to `C=CCSc1nc2ccccc2c(=O)n1Cc1ccccc1`, the displacement was -7.8%.

Consider `COc1ccc(S(=O)(=O)N(CC(=O)NCC2CCCO2)c2ccc(C)cc2)cc1Br` (centres undefined), for which the displacement was -3.6%.

Consider `N#Cc1cccc(NC(=O)/C=C/C(=O)O)c1`, for which the displacement is -6%.

As for `N#C/C(=C\c1ccco1)C(=O)Nc1ccc(F)cc1`, the displacement was -7.3%.

With `CCOc1ccc2nc(SC)nc(C)c2c1`, the displacement is -3.6%.

`Cc1ccc(OCc2nc(-c3ccccn3)no2)c(Br)c1`: the displacement was found to be 7.3%.

Turning to `O=C(c1ccccc1)N1CCN(c2cc(N3CCCC3)c(F)cc2[N+](=O)[O-])CC1`, the displacement is -2.9%.

`O=C1/C(=C/c2ccc(I)o2)SC(=S)N1Cc1ccccc1`: the displacement amounted to 44%.

As for `O=C1/C(=C/c2cn(-c3ccccc3)nc2-c2cccs2)SC(=S)N1Cc1ccccc1`, the displacement was 115%.

Turning to `CC1=C(C(=O)OCC(C)C)C(c2cc([N+](=O)[O-])ccc2Cl)C2=C(CCCC2=O)N1` (centres undefined), the displacement was -0.6%.

`CCC(Oc1ccccc1)C(=O)Nc1cc(C)ccn1` (centres undefined): the displacement turned out to be 0.3%.

With `Cc1nc(SCC(=O)c2ccccc2)n[nH]1`, the displacement was found to be 3.2%.

As for `O=C(O)/C=C/c1cccc2c1OCCO2`, the displacement was -4.7%.

`O=C(Nc1ccccc1)Nc1nnc(-c2cccc(F)c2)s1`: the displacement was determined as 6.2%.

For the molecule `COc1cccc(C2C(C(=O)Nc3ccccc3)=C(C)N=C3SCC(=O)N32)c1` (centres undefined), the displacement was -20.5%.

Consider `O=C(O)CCn1c2c(c3ccccc31)CCCC2`, for which the displacement was determined as 18.6%.

Turning to `C/C(=C/C(=O)Nc1c(C)n(C)n(-c2ccccc2)c1=O)C(=O)O`, the displacement was -11.1%.

In the case of `CCOc1cc(/C=C2\C(=O)NC(=O)N(c3ccc(Cl)cc3)C2=O)cc(Cl)c1OCC`, the displacement was 4%.

`Cc1ccc(/C=C2/SC(=O)N(CN3CCCCC3)C2=O)cc1`: the displacement came to 8.7%.

In the case of `c1ccc(-c2n[nH]c(-c3ccccn3)n2)nc1`, the displacement is -21.3%.

Take `CCOC(=O)c1ccc(NC(=O)/C=C/c2ccc(OC)cc2)cc1`: the displacement is -8.2%.

Turning to `CCOC(=O)C1(C)C=C(Nc2ccc(OC)cc2)C(=O)N1c1ccc(OC)cc1` (centres undefined), the displacement came to 8.3%.

As to `COc1ccc2c(c1)/C(=C1/SC(C(C)=O)=C(c3ccccc3)S1)C(=S)C(C)(C)N2`, the displacement came to 17.1%.

With `Cc1onc(-c2ccccc2Cl)c1C(=O)Nc1ccccc1C(=O)O`, the displacement was -0.2%.

`CC(C)(C)C(=O)CC(O)(c1ccccc1)C(F)(F)C(F)F` (centres undefined): the displacement was -8%.

As for `O=C(Nc1nc2c(s1)C(=O)CCC2)c1ccccc1`, the displacement was -14.8%.

Consider `O=C(COc1ccc(Cl)cc1)NCCCn1ccnc1`, for which the displacement stood at 14.5%.

For `COc1ccc(-c2cc(C(=O)N3CCCC3)c3ccccc3n2)cc1OC`, the displacement was 27.6%.

As to `CCC(C)c1c(O)nc(SCC(=O)c2ccccc2)[nH]c1=O` (centres undefined), the displacement is 10.8%.

Take `CC1=C(C(=O)OCc2ccccc2)C(c2ccccc2I)C2=C(CCCC2=O)N1` (centres undefined): the displacement is -6%.

As for `O=C(/C=C/c1ccco1)Nc1ccc(N2CCOCC2)cc1`, the displacement was -4%.

In the case of `COc1cccc(-c2nc3sc(C)c(C)c3c(=O)[nH]2)c1`, the displacement is -10.8%.

Take `CC(C)C(=O)Nc1nnc(Cc2nnc(NC(=O)C(C)C)s2)s1`: the displacement is 4.2%.

`O=C1N=c2ccc(Cl)cc2=C1c1sc(NS(=O)(=O)Cc2ccccc2)nc1O`: the displacement was -7.2%.

As for `O=C(O)c1cc(-c2ccc3c(c2)OCO3)nc2ccc(Br)cc12`, the displacement was -14.6%.

In the case of `O=C(O)C1C2C=CC(O2)C1C(=O)Nc1ccc(F)c(Cl)c1` (centres undefined), the displacement was found to be 2.5%.

For `N/C(=N\OC(=O)/C=C/c1ccccc1)c1ccccc1`, the displacement is -9%.

As for `O=C(COc1ccc(Br)cc1)Nc1ccc(-c2nc3ccccc3s2)cc1`, the displacement came to 0.5%.

For `CCOc1ccc(/C=C2/C(=O)NC(=O)N(c3ccc(OCC)cc3)C2=O)cc1`, the displacement was found to be 6.5%.

`O=C(N/N=C/c1ccc(F)c(Br)c1)c1cccc(Br)c1`: the displacement turned out to be 7.3%.

On to `O=C(CCN1C(=O)c2cccc3cccc(c23)C1=O)OC/C=C/c1ccccc1`, for which the displacement worked out at 7.5%.

Regarding `CCOc1cc(/C=C/C(=O)O)cc(I)c1OCC`, the displacement stood at 12.7%.

In the case of `Cc1ccc(N2C(=O)CC(N3CCSCC3)C2=O)cc1` (centres undefined), the displacement is -1.3%.

For `C/C(Nc1cccc(C)n1)=C(\C#N)C(N)=O`, the displacement is -3.3%.

On to `Cc1cc(/C=C2\C(=O)NC(=S)N(c3ccc(Cl)cc3)C2=O)c(C)n1-c1cccnc1`, for which the displacement came to 6.5%.

With `Cc1ccc(N(CC(=O)Nc2ccccc2Br)S(=O)(=O)c2ccc(F)cc2)cc1`, the displacement worked out at 10.7%.

For `Cc1onc(-c2ccccc2)c1C(=O)Nc1ccc(N(C)C)cc1`, the displacement came out at 8.8%.

As to `CC(C)(C(=O)O)c1ccc([N+](=O)[O-])cc1`, the displacement is -7.4%.

For the molecule `COC(=O)c1ccc(C2C(C(=O)OCCc3ccccc3)=C(C)NC3=C2C(=O)CCC3)cc1` (centres undefined), the displacement is -6.6%.

In the case of `CC(NC(=O)c1ccccc1NC(=O)c1cccnc1)c1ccccc1` (centres undefined), the displacement was 13.1%.

For the molecule `CSc1nc(C)c(C(C)=O)cc1C#N`, the displacement was -4.5%.

For the molecule `COc1ccc(Nc2nc(C)cc(C)c2C(N)=O)cc1`, the displacement is -2.7%.

With `COc1cc(/C=C(/C#N)C(=O)Nc2cccc(Br)c2)cc(Cl)c1O`, the displacement was -52.5%.

Regarding `CCOC(=O)C1(C)C=C(Nc2ccc(Cl)cc2)C(=O)N1c1ccc(Cl)cc1` (centres undefined), the displacement is -1.7%.

As to `CCc1c(C)sc(NC(=O)c2ccc(OC)cc2)c1C(N)=O`, the displacement is -0.6%.

Regarding `Cc1cccc(C(=O)N2CCN(C)CC2)c1`, the displacement was -5.3%.

On to `CCc1ccc(NC(=O)c2cccc3ccccc23)cc1`, for which the displacement stood at 2.4%.

As for `C=C/C(=C\C=C(/C)F)NC(=O)/C(C#N)=C\c1cc(Cl)cc(Cl)c1Cl`, the displacement is -8%.

Regarding `O=C1C(=O)N(c2ccccn2)C(c2cccnc2)/C1=C(/O)c1cccc(Br)c1` (centres undefined), the displacement was -16.6%.

With `COc1cccc(/C=C2\SC(=O)N(CCC(=O)Nc3c(C)n(C)n(-c4ccccc4)c3=O)C2=O)c1`, the displacement came to 3.1%.

Regarding `O=C(CSc1nc2ccccc2o1)c1ccc(-c2ccccc2)cc1`, the displacement was 17.5%.

As to `Cc1c(C(=O)Nc2ccc(-c3nc4cc(Cl)ccc4o3)cc2)cccc1[N+](=O)[O-]`, the displacement is -13.9%.

For `CC1CCN(C(=O)/C(=C\c2ccco2)NC(=O)c2ccccc2)CC1`, the displacement is 15.6%.

In the case of `C=CCc1cc(/C=C2\C(=O)NC(=S)N(c3cccc(Br)c3)C2=O)cc(OC)c1O`, the displacement was 0%.

In the case of `CC(C)(C)C(=O)COc1ccc2ccc(=O)oc2c1`, the displacement was 10.3%.

As for `O=C1N=C(N2CCOCC2)S/C1=C\c1ccc(O)cc1`, the displacement is -25.5%.

For the molecule `Cc1ccc(N2C(=O)C(O)C(O)C2=O)cc1` (centres undefined), the displacement was -7.8%.

Regarding `Cc1no[n+]([O-])c1COc1ccccc1C=C1C(=O)NC(=S)NC1=O`, the displacement was found to be 10.8%.

For `Cc1ccc(/C=C/C(=O)Nc2cccc3ncccc23)o1`, the displacement is 27.1%.

Consider `O=C(CSc1nc2ccccc2o1)c1ccc2c(c1)Cc1ccccc1-2`, for which the displacement came to 12.1%.

For the molecule `COc1ccc(NC(=O)c2ccc(Br)o2)c(OC)c1`, the displacement was -1.7%.

For `COc1cc(NC(=O)c2cccc(Br)c2)c(C(=O)O)cc1OC`, the displacement was -2.9%.

With `CCOc1cccc(C(=O)Nc2ccc(C(=O)Nc3cccc(-c4nc5ccccc5o4)c3)cc2)c1`, the displacement is 0.7%.

For the molecule `Oc1c(Br)cc(Br)cc1C=Nc1ccc(Cl)c2cccnc12`, the displacement is -2.5%.

For the molecule `Cc1ccc2nsnc2c1NC(=O)c1ccc(-c2ccccc2)cc1`, the displacement is 1.4%.

As to `O=C1C2C3C=CC(C3)C2C(=O)N1CNc1ccccc1` (centres undefined), the displacement is -11.3%.

Consider `C1CN(CC2CSC(=NC34CC5CC(CC(C5)C3)C4)O2)CCO1` (centres undefined), for which the displacement is -13%.

In the case of `CCOCCOC(=O)C1=C(C)NC2=C(C(=O)CCC2)C1c1cc(Br)c(O)c(OCC)c1` (centres undefined), the displacement came to 2%.

On to `CCc1ccccc1NC1=C(Cl)C(=O)N(c2ccc(Br)cc2)C1=O`, for which the displacement was -3.9%.

As to `Cc1cccc(OCc2nc(-c3ccccn3)no2)c1`, the displacement was found to be 7.8%.

Consider `COc1ccc(/C=C/C(=O)NCC2(c3ccccc3)CCOCC2)cc1OC`, for which the displacement is -8.4%.

In the case of `Cc1nn(-c2ccccc2)c2c1C(c1ccccc1)C(C#N)=C(N)O2` (centres undefined), the displacement worked out at 7.2%.

For the molecule `O=C(CSc1nnc(-c2ccccc2)n1-c1ccccc1)N/N=C/c1ccccc1[N+](=O)[O-]`, the displacement is -9.6%.

With `CC1=C(C(=O)Nc2cc(Cl)ccc2C)C(c2cccc(Br)c2)NC(=S)N1` (centres undefined), the displacement was found to be 14.6%.
